# Measurements reported in PubChem BioAssay AID588855 (National Center for Advancing Translational Sciences (NCATS), 2011).
# The whole screen tested about 410,000 compounds, of which about 5,000 (1.2%) were called active. Inconclusive results, whose numbers are uncertain, are shown with a selection of clear calls. Calls follow the shape of the dose curve; as a rule, active = well fitted inhibition curve with a large enough effect; inconclusive = small, poorly fitted or top-dose-only effect; inactive = no such curve, though single readings can be large or run the other way. Potencies of inconclusive entries are doubtful fits and often do not repeat.
# Assay: qHTS for Inhibitors of TGF-b; also: nearly all actives have a fitted effect of over 65% in size
# Conditions: HepG2 CAGA-GFP TGF-b/SMAD3 reporter, GFP fluorescence, 18 h, TGF-beta stimulated, 500 pg/mL final; series mostly up to 46.1 µM; activity, negative = inhibition: at the top concentration
# How it was run: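 Inhibition of TGF-beta-driven CAGA-GFP reporter expression in HEPG2 cells is measured by cellular GFP fluorescence after 18 h stimulation with 500 pg/mL recombinant TGF-beta in 1% FBS medium at 37 degrees C.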
# % is scaled to controls: 0 for no effect and ±100 for the full control effect; potency is read from the fitted curve at half-maximal effect; tags tell the direction and shape of the fitted curve.
SMILES,Potency,"activity, negative = inhibition"
OC(CNCC(c1ccc(Cl)cc1Cl)c1c[nH]c2ccccc12)c1ccccc1 (stereo not drawn),active: 7.08 µM,
Cc1ccc(OCc2ccc(-c3nc(C#N)c(NCc4ccccc4Cl)o3)o2)cc1,"inconclusive: 0.447 µM [inhibitor, full curve, poor fit]",
O=C(NCc1ccccc1F)C1CCN(c2nn3cc(-c4ccc(F)cc4)nc3s2)CC1,,inactive: 0%
O=C(Cc1ccc(-n2c(=S)[nH]c3ccccc3c2=O)cc1)N1CCN(c2ccccc2)CC1,"inconclusive: 5.62 µM [inhibitor, single point]",
Cc1ccc(C(=O)Nc2ccc3nc(C)sc3c2)o1,,inactive: -12.8%
c1ccc(-c2nc3ccccc3o2)nc1,"inconclusive: 31.6 µM [inhibitor, single point]",
Cc1cc(OCC(=O)Nc2cccc(S(=O)(=O)N3CCCCC3)c2)ccc1Cl,"inconclusive: 14.1 µM [inhibitor, single point]",
C#CCOCCOCCOCCNc1nc(N2CCN(C(=O)CCCCCCCCCCNC(=O)Cn3cc(CCCCCN)nn3)CC2)nc(N2CCN(C(=O)CCCCCCCCCCNC(=O)Cn3cc(C[C@@H](C)O)nn3)CC2)n1,"inconclusive: 35.5 µM [inhibitor, single point]",
CCCc1cc(C(=O)N2CCN(c3ccc(C(F)(F)F)cn3)CC2)sc1C,"inconclusive: 31.6 µM [inhibitor, single point]",
O=C(Oc1cccc(/C=N/NC(=O)c2ccccn2)c1)c1ccc([N+](=O)[O-])cc1,"inconclusive: 5.62 µM [inhibitor, single point]",
CCOc1ccccc1NC(=O)CN(c1ccc(Cl)cc1)S(C)(=O)=O,,inactive: -15.7%
O=C(c1ccco1)N1CCN(CC(=O)N2c3ccccc3CCc3ccccc32)CC1,"inconclusive: 6.31 µM [inhibitor, single point]",
c1ccc(-c2csc(NNC3=NCCCCC3)n2)cc1,"inconclusive: 25.1 µM [inhibitor, single point]",
COc1cc(-c2cc(C(=O)N(C)Cc3ccccc3)c3ccccc3n2)cc(OC)c1OC,,inactive: 26.9%
CS(=O)(=O)Nc1cccc(C2=NN(S(=O)(=O)c3ccccc3)C(c3ccco3)C2)c1 (stereo not drawn),"inconclusive: 20 µM [inhibitor, single point]",
NC(N)=Nc1nc(-c2ccccc2)c2ccccc2n1,"inconclusive: 35.5 µM [inhibitor, single point]",
c1ccc(C(Cc2nc(-c3ccccn3)no2)c2ccccc2)cc1,"inconclusive: 35.5 µM [inhibitor, partial curve, poor fit]",
Cc1ccc(-c2cc3nc(-c4ccc(Br)cc4)cc(N)n3n2)cc1,"inconclusive: 35.5 µM [inhibitor, single point]",
Cn1nc(C(F)(F)F)c2cc(NC(=O)OCc3ccc(F)cc3)sc21,"inconclusive: 20 µM [inhibitor, single point]",
Cc1cc(C)cc(N(CCC#N)C(=O)CSC2=Nc3ccccc3C3CC=NN23)c1 (stereo not drawn),"inconclusive: 35.5 µM [inhibitor, single point]",
Cc1cccc(NC(=S)NCCC(c2ccccc2)c2ccccc2)c1,active: 11.2 µM,

SMILES,Potency,"activity, negative = inhibition"
Cc1ccc(S(=O)(=O)C2(C(=O)N3CCCCCC3)CC2)cc1,,inactive: -7.29%
CC(=O)N(c1ccccc1C)C1CCCC1,,inactive: -1.48%
COc1ccc(S(=O)(=O)Cc2ccc(C(=O)N3CCN(C(=O)c4ccco4)CC3)o2)cc1,"inconclusive: 20 µM [inhibitor, single point]",
COc1ccc(Br)cc1C(=O)Nc1ccc(N2CCN(S(C)(=O)=O)CC2)cc1,,inactive: 18.5%
CCN1CC(CN(C)Cc2cn(-c3cccc(C)c3)nc2-c2cccc(F)c2)CC1=O (stereo not drawn),"inconclusive: 12.6 µM [inhibitor, partial curve, poor fit]",
CN(C)c1ccc(/C=C(/C(=O)c2ccc(Cl)cc2Cl)n2cncn2)cc1,,inactive: -11%
COC(=O)c1ccc(OCCCCN(C)Cc2ccccc2)cc1,"inconclusive: 15.8 µM [inhibitor, partial curve, poor fit]",
COc1ccc(-c2onc(C)c2C)cc1S(=O)(=O)NCC1CCN(Cc2cc(C)ccc2C)CC1,"inconclusive: 8.91 µM [inhibitor, partial curve, poor fit]",
Cc1cccc(N2CCN(S(=O)(=O)c3ccc4c(c3)CC(=O)N4C)CC2)c1C,"inconclusive: 8.91 µM [inhibitor, partial curve]",
C=C(C)Cn1c(SCC(=O)N/N=C/c2c(O)ccc3ccccc23)nc2ccccc2c1=O,"inconclusive: 10 µM [inhibitor, partial curve]",
COC(=O)C1=C(C)N(C)C(C)=C(C(=O)OC)C1c1ccc(Cl)cc1,"inconclusive: 35.5 µM [inhibitor, single point]",
CCN(CC)CCNC(=O)Cn1nc(C)c2c(C)n(-c3ccccc3)nc2c1=O,,inactive: 16.9%
COc1cccc(SCc2noc(C(=O)NCC3CC3)c2C(=O)NCC2CC2)c1,"inconclusive: 3.55 µM [inhibitor, single point]",
O=C(Oc1ccc(Cl)cc1)c1cc(-c2ccc3c(c2)OCCO3)on1,"inconclusive: 6.31 µM [inhibitor, full curve]",
CCCOc1ccc(C(F)(F)F)cc1NS(=O)(=O)c1ccc(Cl)nc1,"inconclusive: 14.1 µM [inhibitor, partial curve]",
CC(/C=N/NC(=O)c1cc(C(C)C)[nH]n1)=C\c1ccccc1,"inconclusive: 17.8 µM [inhibitor, partial curve, poor fit]",
CCCCCc1nc2sc3c(c2c(=O)n1NC(=O)c1ccc([N+](=O)[O-])cc1)CC(C)(C)OC3,"inconclusive: 7.94 µM [inhibitor, partial curve, poor fit]",
COc1cc(/C=N/NC(=O)c2cc(-c3ccccc3OC(C)C)nc3ccccc23)ccc1O,,inactive: -3.47%
O=C(Cn1c(=O)oc2cc(S(=O)(=O)N3CCCCC3)ccc21)NCc1ccc(Cl)cc1,"inconclusive: 35.5 µM [inhibitor, single point]",
NC(=O)C1Cc2ccccc2CN1C(=O)c1cc(C2CC2)nn1-c1ccccc1 (stereo not drawn),,inactive: -2.64%
CN(C(=O)c1cccc(NC(=O)Cc2ccc([N+](=O)[O-])cc2)c1)C1CCCCC1,"inconclusive: 11.2 µM [inhibitor, partial curve, poor fit]",

SMILES,Potency,"activity, negative = inhibition"
O=C(CN(c1cccc(C(F)(F)F)c1)S(=O)(=O)c1ccc(Cl)c([N+](=O)[O-])c1)NCc1ccccc1Cl,"inconclusive: 35.5 µM [inhibitor, single point]",
C[C@@H]1CC=C[C@H]2[C@H]1C(=O)N(Cc1ccccc1)[C@H]2c1ccoc1,"inconclusive: 11.2 µM [inhibitor, single point]",
COc1ccc2nc(C)cc(Nc3ccc(Cl)c(Cl)c3)c2c1,"inconclusive: 25.1 µM [inhibitor, single point]",
COCCNC(=O)CSC1=N/C(=C/c2ccc(Cl)c(Cl)c2)C(=O)N1c1ccccc1F,"inconclusive: 17.8 µM [inhibitor, single point]",
CCC1=NN(C(=O)C(=O)Nc2ccc(Br)cc2)C(O)(C(F)(F)F)C1 (stereo not drawn),"inconclusive: 31.6 µM [inhibitor, single point]",
CCN(CC)CCCN(C(=O)c1ccco1)c1nc(-c2ccc(C)cc2)cs1,"inconclusive: 35.5 µM [inhibitor, single point]",
CC1(C)CC(=O)C(C(C#Cc2ccccc2)C2=C(O)CC(C)(C)CC2=O)=C(O)C1,"inconclusive: 35.5 µM [inhibitor, single point]",
Cc1cc([N+](=O)[O-])ccc1-c1ccc(/C=N/NC(=O)Cc2ccccc2)o1,,inactive: -16.9%
COc1ccc(NC(=S)SC)cc1OC,"inconclusive: 20 µM [inhibitor, single point]",
Cc1ccc(S(=O)(=O)N2CCC(=O)N(CCOC(=O)Nc3cc(C)cc(C)c3)CC2)cc1,"inconclusive: 35.5 µM [inhibitor, single point]",
Cc1nc(N2CCN(C(=O)c3ccco3)CC2)nc2c1C(=O)CCC2,,inactive: 0%
CCc1nc2c(C#N)c(-c3ccc(Cl)cc3)ccn2n1,,inactive: 19%
CN(Cc1ccccc1Cl)C(=O)C1CCC(=O)N(CCc2cccc(F)c2)C1 (stereo not drawn),"inconclusive: 35.5 µM [inhibitor, single point]",
COc1ccc(Cl)cc1NC(=O)CSc1cn(CC(=O)N2CCCCCC2)c2ccccc12,"inconclusive: 1.41 µM [inhibitor, partial curve, poor fit]",
CCc1ccc(N2C(=O)CN(Cc3cc(OC)c(OC)c(OC)c3)C2=S)cc1,"inconclusive: 0.794 µM [inhibitor, full curve, poor fit]",
Cc1ccc(NC(=O)Cn2c(=O)n(CCC(=O)NCc3ccccc3Cl)c(=O)c3ccccc32)cc1,"inconclusive: 10 µM [inhibitor, partial curve, poor fit]",
Oc1ccc2ccccc2c1C=NC12CN3CCN(CN(C3)C1)C2,"inconclusive: 22.4 µM [inhibitor, single point]",
COc1cc(Cl)ccc1OCc1cc(C(=O)N2CCCCC2c2cccnc2)no1 (stereo not drawn),"inconclusive: 3.55 µM [inhibitor, single point]",
CCOC(=O)N1CCN(C(=O)c2ccc3c(c2)NC(=O)/C(=C\c2ccc(OC)c(OC)c2)S3)CC1,"inconclusive: 35.5 µM [inhibitor, single point]",
O=C(COc1ccccc1)NCc1nnc(SCC(=O)Nc2nccs2)n1-c1ccccc1,"inconclusive: 15.8 µM [inhibitor, single point]",
COc1cc(NC(=O)C(CCSC)NS(=O)(=O)c2ccc3c(c2)oc(=O)n3C)cc(OC)c1 (stereo not drawn),,inactive: 0%
